Source: PMC7405385
No constants are given. Whether binding was seen depends on the method and setting. For some of these results: In cells and extracts the contact can be indirect. Some results given as binding are weak or reduced against the parent protein; the word gives no strength. One block for each binder: values may come before it.

Sequences of proteins named here, by UniProt entry; tags and fusion partners are left off. A change or cut given only in a name is not applied to a line headed by its entry.
UniProt P52630: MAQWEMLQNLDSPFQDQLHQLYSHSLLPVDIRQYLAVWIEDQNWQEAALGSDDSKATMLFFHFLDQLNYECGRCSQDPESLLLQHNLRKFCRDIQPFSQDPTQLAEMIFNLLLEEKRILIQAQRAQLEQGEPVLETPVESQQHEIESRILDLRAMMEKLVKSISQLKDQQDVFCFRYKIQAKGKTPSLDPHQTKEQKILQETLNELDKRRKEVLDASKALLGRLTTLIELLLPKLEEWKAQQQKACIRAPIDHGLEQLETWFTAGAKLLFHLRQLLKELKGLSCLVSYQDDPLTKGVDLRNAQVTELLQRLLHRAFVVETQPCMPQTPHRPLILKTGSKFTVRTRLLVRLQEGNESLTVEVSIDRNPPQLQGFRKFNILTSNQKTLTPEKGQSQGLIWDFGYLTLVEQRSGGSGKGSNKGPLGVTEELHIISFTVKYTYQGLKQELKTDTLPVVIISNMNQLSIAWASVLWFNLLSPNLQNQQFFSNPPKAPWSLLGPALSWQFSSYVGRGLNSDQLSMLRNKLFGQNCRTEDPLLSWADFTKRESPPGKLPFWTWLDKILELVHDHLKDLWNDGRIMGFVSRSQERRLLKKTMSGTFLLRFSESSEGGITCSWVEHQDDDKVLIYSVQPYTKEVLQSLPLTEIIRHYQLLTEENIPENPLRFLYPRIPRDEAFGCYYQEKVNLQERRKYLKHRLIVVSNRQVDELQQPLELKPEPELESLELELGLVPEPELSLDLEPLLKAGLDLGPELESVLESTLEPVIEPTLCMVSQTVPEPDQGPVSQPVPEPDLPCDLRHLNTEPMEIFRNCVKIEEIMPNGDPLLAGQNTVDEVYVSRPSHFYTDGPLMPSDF

Assays:
[1] = biological target: Flag-STAT2 wild type from HEK293T cells (human) (UniProt P52630); assay: pull-down; in vitro: purified Flag-STAT2 mixed with commercial IKK-ε (or purified TBK1), immunoprecipitated with anti-Flag, immunoblotted; both purified
[2] = biological target: Flag-STAT2 wild type from HEK293T cells (human) (UniProt P52630); assay: co-IP; HEK293T cells co-transfected with IKK-ε and STAT2; immunoprecipitation of Flag-STAT2 from whole-cell lysates
[3] = biological target: Flag-STAT2 T404A expressed in HEK293T cells (human) (UniProt P52630); assay: as above

binding [1]: binds
B1: IKK-ε, commercial purified protein (enzyme, UniProt Q14164 1-716)
chain: MQSTANYLWHTDDLLGQGATASVYKARNKKSGELVAVKVFNTTSYLRPREVQVREFEVLRKLNHQNIVKLFAVEETGGSRQKVLVMEYCSSGSLLSVLESPENAFGLPEDEFLVVLRCVVAGMNHLRENGIVHRDIKPGNIMRLVGEEGQSIYKLTDFGAARELDDDEKFVSVYGTEEYLHPDMYERAVLRKPQQKAFGVTVDLWSIGVTLYHAATGSLPFIPFGGPRRNKEIMYRITTEKPAGAIAGAQRRENGPLEWSYTLPITCQLSLGLQSQLVPILANILEVEQAKCWGFDQFFAETSDILQRVVVHVFSLSQAVLHHIYIHAHNTIAIFQEAVHKQTSVAPRHQEYLFEGHLCVLEPSVSAQHIAHTTASSPLTLFSTAIPKGLAFRDPALDVPKFVPKVDLQADYNTAKGVLGAGYQALRLARALLDGQELMFRGLHWVMEVLQATCRRTLEVARTSLLYLSSSLGTERFSSVAGTPEIQELKAAAELRSRLRTLAEVLSRCSQNITETQESLSSLNRELVKSRDQVHEDRSIQQIQCCLDKMNFIYKQFKKSRMRPGLGYNEEQIHKLDKVNFSHLAKRLLQVFQEECVQKYQASLVTHGKRMRVVHETRNHLRLVGCSVAACNTEAQGVQESLSKLLEELSHQLLQDRAKGAQASPPPIAPYPSPTRKDLLLHMQELCEGMKLLASDLLDNNRIIERLNRVPAPPDV

binding [2]: binds | binding [3]: binds
B2: IKK-ε ectopically expressed in HEK293T cells (enzyme, UniProt Q14164 1-716)
chain: B1 chain

binding [1]: binds
B3: TBK1, purified (enzyme, UniProt Q9UHD2 1-729)
chain: MQSTSNHLWLLSDILGQGATANVFRGRHKKTGDLFAIKVFNNISFLRPVDVQMREFEVLKKLNHKNIVKLFAIEEETTTRHKVLIMEFCPCGSLYTVLEEPSNAYGLPESEFLIVLRDVVGGMNHLRENGIVHRDIKPGNIMRVIGEDGQSVYKLTDFGAARELEDDEQFVSLYGTEEYLHPDMYERAVLRKDHQKKYGATVDLWSIGVTFYHAATGSLPFRPFEGPRRNKEVMYKIITGKPSGAISGVQKAENGPIDWSGDMPVSCSLSRGLQVLLTPVLANILEADQEKCWGFDQFFAETSDILHRMVIHVFSLQQMTAHKIYIHSYNTATIFHELVYKQTKIISSNQELIYEGRRLVLEPGRLAQHFPKTTEENPIFVVSREPLNTIGLIYEKISLPKVHPRYDLDGDASMAKAITGVVCYACRIASTLLLYQELMRKGIRWLIELIKDDYNETVHKKTEVVITLDFCIRNIEKTVKVYEKLMKINLEAAELGEISDIHTKLLRLSSSQGTIETSLQDIDSRLSPGGSLADAWAHQEGTHPKDRNVEKLQVLLNCMTEIYYQFKKDKAERRLAYNEEQIHKFDKQKLYYHATKAMTHFTDECVKKYEAFLNKSEEWIRKMLHLRKQLLSLTNQCFDIEEEVSKYQEYTNELQETLPQKMFTASSGIKHTMTPIYPSSNTLVEMTLGMKKLKEEMEGVVKELAENNHILERFGSLTMDGGLRNVDCL
